{"source": "PubChem BioAssay AID624417", "about": "(National Center for Advancing Translational Sciences (NCATS), 2012)", "note": "“And” between values parts separate entries of the source, which are not always exact repeats. Equal values may be shown once. Among all 410,000 compounds or so, about 6,400 (1.6%) were called active. The inconclusive results got no clear call from the source; some entries with a clear call stand among them for comparison. The call rests on the fitted dose curve; in most records, active means well fitted inhibition curve with a large enough effect; inconclusive means small, poorly fitted or top-dose-only effect; inactive means no such curve, though single readings can be large or run the other way. Potencies beside an inconclusive call are fits to weak or partial responses and may not hold up. On the % scale 0 is the no-effect control and ±100 the full control effect; potency means the concentration at half of the fitted maximal effect; tags describe the fitted curve by direction and shape.", "data": [{"biological_target": "Glucagon-like peptide 1 receptor (Homo sapiens) (UniProt P43220)", "sequence (P43220 whole entry, looked up)": "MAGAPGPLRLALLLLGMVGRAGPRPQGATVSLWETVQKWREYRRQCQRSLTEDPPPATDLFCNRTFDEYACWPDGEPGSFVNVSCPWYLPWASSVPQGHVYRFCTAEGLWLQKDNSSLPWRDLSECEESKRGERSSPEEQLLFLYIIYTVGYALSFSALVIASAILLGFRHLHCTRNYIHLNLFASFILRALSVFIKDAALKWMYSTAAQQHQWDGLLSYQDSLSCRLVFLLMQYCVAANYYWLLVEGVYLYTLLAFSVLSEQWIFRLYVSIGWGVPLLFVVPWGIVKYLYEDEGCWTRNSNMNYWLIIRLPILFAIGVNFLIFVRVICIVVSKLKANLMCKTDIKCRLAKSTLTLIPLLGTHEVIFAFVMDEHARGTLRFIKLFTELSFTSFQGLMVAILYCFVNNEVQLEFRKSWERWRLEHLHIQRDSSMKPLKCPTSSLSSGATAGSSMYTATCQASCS", "experiment": "qHTS of GLP-1 Receptor Inverse Agonists (Inhibition Mode); further: nearly all actives have a fitted effect of over 55% in size", "details": "HEK293 GLP-1R CRE-luciferase, luminescence, 24 h, GLP-1R form is constitutively active; activity change, negative = inhibition: at 38.3 µM (top of the series) unless noted", "in_short": "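Using stably transfected HEK293 (constitutively active GLP-1R, cAMP-luciferase reporter), compounds were incubated 24 hr and luciferase measured by luminescence.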", "values": [{"smiles": "Nc1nc(Nc2cccc(Cl)c2)sc1C(=O)c1ccc(F)cc1", "Potency": "inconclusive: 28.2 µM [inhibitor, single point]"}, {"smiles": "COc1cc2c(NCCCCCO)ncnc2c(OC)c1OC", "Potency": "inactive"}, {"smiles": "COc1cc(OC)c(NC(=O)CC(C)S(=O)(=O)c2ccc3c(c2)NC(=O)CO3)cc1Cl", "note": "(stereo not given)", "Potency": "inactive"}, {"smiles": "Cc1ccccc1Nc1cccc2nonc12", "Potency": "inconclusive: 28.2 µM [inhibitor, single point]"}, {"smiles": "CC(C)c1ccc(NC(=S)N2CCCC(c3ccc(F)cc3)=N2)cc1", "Potency": "inconclusive: 8.91 µM [inhibitor, partial curve]"}, {"smiles": "CCCNC(=O)c1ccc(COc2cccc3ccccc23)o1", "Potency": "inconclusive: 28.2 µM [inhibitor, single point]"}, {"smiles": "CCCn1c(SCc2ccon2)nc2ccccc2c1=O", "Potency": "inconclusive: 28.2 µM [inhibitor, single point]"}, {"smiles": "CCOC(=O)C1=C(C)N=C2SC(C)C(=O)N2C1/C=C/c1ccccc1OC", "note": "(stereo not given)", "Potency": "inconclusive: 11.2 µM [inhibitor, single point]"}, {"smiles": "CCn1nnnc1NCc1ccc(OCc2ccc(F)cc2Cl)c(OC)c1", "Potency": "inconclusive: 15.8 µM [inhibitor, single point]"}, {"smiles": "COc1ccc(CC(=O)NNc2ncnc3c2cnn3-c2ccc(C)cc2)cc1OC", "Potency": "inactive"}, {"smiles": "O=[N+]([O-])c1ccc(N(CCO)Cc2ccccc2)c([N+](=O)[O-])c1", "Potency": "inconclusive: 28.2 µM [inhibitor, single point]"}, {"smiles": "COc1cccc(NC(=O)CN(C)C(=O)c2ccccc2CCc2ccccc2)c1", "Potency": "inconclusive: 8.91 µM [inhibitor, partial curve, poor fit]"}, {"smiles": "CCCOc1c(Br)cc(C2C3=C(CCCC3=O)N(CC)C3=C2C(=O)CCC3)cc1OC", "Potency": "inconclusive: 15.8 µM [inhibitor, single point]"}, {"smiles": "O=C(NC1CCCC1)C(c1cccs1)N(Cc1ccco1)C(=O)Cn1nnc(-c2cccs2)n1", "note": "(stereo not given)", "Potency": "inconclusive: 3.16 µM [inhibitor, full curve]"}, {"smiles": "O=C1CC[C@H](O)CCN1[C@H](CSc1ccc(Br)cc1)Cc1ccccc1", "Potency": "inconclusive: 12.6 µM [inhibitor, single point]"}, {"smiles": "CC(OC(=O)/C(C#N)=C/c1ccc(N(C)C)cc1)C(=O)N(C)Cc1ccccc1", "note": "(stereo not given)", "Potency": "inconclusive: 11.2 µM [inhibitor, partial curve, poor fit]"}, {"smiles": "COc1ccc(N2CCN(C3CCCN(Cc4ccc(F)c(F)c4)C3)CC2)cc1", "note": "(stereo not given)", "Potency": "inconclusive: 17.8 µM [inhibitor, partial curve, poor fit]"}, {"smiles": "O=C(CSc1ncn[nH]1)Nc1ccccc1Sc1ccc(Cl)cc1", "Potency": "inconclusive: 10 µM [inhibitor, partial curve]"}, {"smiles": "Cc1ccc(S(=O)(=O)Nc2ccccc2C=NNC(=O)c2ccncc2)cc1", "Potency": "inconclusive: 2.51 µM [inhibitor, full curve, poor fit]"}, {"smiles": "Cn1ccc2c(-c3ccc(C(F)(F)F)cc3)cc3c(c21)C1CCC3O1", "note": "(stereo not given)", "Potency": "inconclusive: 11.2 µM [inhibitor, single point]"}, {"smiles": "Cc1cccc(OCC(O)Cn2c(=N)n(CCN3CCOCC3)c3ccccc32)c1", "note": "(stereo not given)", "Potency": "inconclusive: 28.2 µM [inhibitor, single point]"}, {"smiles": "COc1ccc(C2CC(=O)c3cc(-c4nc(-c5ccc(C)cc5)cs4)c(=O)[nH]c3C2)cc1", "note": "(stereo not given)", "Potency": "inactive"}, {"smiles": "CC(C)c1ccc(NC(=O)Cc2ccc(NC(=O)N3CCCCc4ccccc43)cc2)cc1", "Potency": "inconclusive: 3.98 µM [inhibitor, full curve, poor fit]"}, {"smiles": "COc1ccc(Cl)cc1NC(=O)C[n+]1ccccc1", "Potency": "inactive"}, {"smiles": "Cc1ccsc1C(=O)OCC(=O)NC1CCCC(C)C1C", "note": "(stereo not given)", "Potency": "inconclusive: 3.16 µM [inhibitor, partial curve, poor fit]"}, {"smiles": "CCOc1ccc(S(=O)(=O)N2CCN(C(=S)NCc3ccccc3)CC2)cc1", "Potency": "inconclusive: 28.2 µM [inhibitor, single point]"}, {"smiles": "COc1ccc(C(O)c2nc(-c3ccc(N(C)C)cc3)cs2)cc1", "note": "(stereo not given)", "Potency": "inconclusive: 28.2 µM [inhibitor, single point]"}, {"smiles": "CCOc1ccc(NC(=O)C2=C(C)C(=O)OC23CCC(C)CC3)cc1", "note": "(stereo not given)", "Potency": "inconclusive: 28.2 µM [inhibitor, single point] and inconclusive: 11.2 µM [inhibitor, partial curve, poor fit]"}, {"smiles": "COc1cc(NC(=O)C(C)Oc2ccccc2)ccc1NC(=O)COc1ccccc1", "note": "(stereo not given)", "Potency": "inconclusive: 22.4 µM [inhibitor, partial curve, poor fit]"}, {"smiles": "CCc1ccc(-c2cc(C)no2)cc1S(=O)(=O)N1CCOc2ccccc21", "Potency": "inconclusive: 31.6 µM [inhibitor, partial curve, poor fit]"}, {"smiles": "CN1CCC(N(C)S(=O)(=O)c2ccc(NC(=O)COc3ccc(Cl)cc3)cc2)CC1", "Potency": "inconclusive: 1.58 µM [inhibitor, full curve, poor fit]"}, {"smiles": "COc1ccccc1CNC(=O)c1cc(-c2ccncc2)nc2c(Cl)cccc12", "Potency": "inconclusive: 10 µM [inhibitor, single point]"}, {"smiles": "O=C(Nc1ccc(OCC(F)(F)C(F)F)c(C(F)(F)F)c1)c1ccccc1O", "Potency": "inconclusive: 12.6 µM [inhibitor, partial curve, poor fit]"}, {"smiles": "Cc1c(C(=O)NCCSCc2ccc(Cl)cc2Cl)cccc1[N+](=O)[O-]", "Potency": "inconclusive: 14.1 µM [inhibitor, partial curve, poor fit]"}, {"smiles": "NC(CSC(c1ccccc1)(c1ccccc1)c1ccc2c(c1)OCO2)C(=O)O", "note": "(stereo not given)", "Potency": "inconclusive: 11.2 µM [inhibitor, partial curve, poor fit]"}, {"smiles": "CCN(CCN(C)C)C(=O)c1ccc2c(c1NCCO)C(=O)c1ccccc1C2=O", "Potency": "inconclusive: 28.2 µM [inhibitor, single point]"}, {"smiles": "O=S(=O)(c1ccc(NC(=S)NC23CC4CC(CC(C4)C2)C3)cc1)N1CCCCC1", "Potency": "inconclusive: 10 µM [inhibitor, partial curve]"}, {"smiles": "COc1ccc(N(Cc2cc3ccc(C)cc3[nH]c2=O)S(=O)(=O)c2ccccc2)cc1", "Potency": "inconclusive: 3.98 µM [inhibitor, partial curve, poor fit]"}, {"smiles": "CCOC(=O)c1ccc(N/C(=N/S(=O)(=O)c2ccccc2)c2ccccc2)cc1", "Potency": "inconclusive: 12.6 µM [inhibitor, partial curve, poor fit]"}, {"smiles": "CCCCn1c(NCc2ccc3c(c2)OCO3)nc2ccccc21", "Potency": "inconclusive: 14.1 µM [inhibitor, single point]"}, {"smiles": "COc1ccc(C(=O)Nc2ccnn2C2CCN(CCC(C)c3ccc(C)o3)CC2)cc1", "note": "(stereo not given)", "Potency": "inconclusive: 10 µM [inhibitor, partial curve, poor fit]"}, {"smiles": "COc1ccc2[nH]c3c4c(ccc3c2c1)C(=O)C=CC4=O", "Potency": "inconclusive: 12.6 µM [inhibitor, single point]"}, {"smiles": "CN(CC(=O)NCCc1ccc(F)cc1)Cc1cccc(Cl)c1", "Potency": "inconclusive: 28.2 µM [inhibitor, single point]"}, {"smiles": "COc1ccc(S(=O)(=O)N(C)C[C@@H]2OCCCC[C@H](C)Oc3ccc(NC(=O)Nc4ccc(C(F)(F)F)cc4)cc3C(=O)N([C@H](C)CO)C[C@H]2C)cc1", "Potency": "inconclusive: 7.08 µM [inhibitor, partial curve, poor fit]"}, {"smiles": "OCC1CCCN(c2nc(CN3CCCCC3)nc3scc(-c4ccccc4)c23)C1", "note": "(stereo not given)", "Potency": "inconclusive: 28.2 µM [inhibitor, single point]"}, {"smiles": "C=CCOc1ccc(CNCCc2ccc(S(N)(=O)=O)cc2)cc1", "activity change, negative = inhibition": "inconclusive: -30% [inhibitor]"}, {"smiles": "CCCCCC1CCC(c2ccc(C(N)=O)cc2)CC1", "note": "(stereo not given)", "Potency": "inactive"}, {"smiles": "COc1cccc(NC(=S)N(CCc2c(C)[nH]c3ccccc23)Cc2cccs2)c1", "Potency": "inconclusive: 22.4 µM [inhibitor, single point]"}, {"smiles": "CS(=O)(=O)Nc1ccc(-c2nc3ccccc3s2)cc1", "Potency": "inconclusive: 10 µM [inhibitor, partial curve]"}, {"smiles": "O=C(CN1CCN(c2ccccc2F)CC1)N1CCc2ccccc21", "Potency": "inactive"}, {"smiles": "COc1ccc2[nH]c3c(c2c1)CCN1C(=O)C(CC(=O)NCC24CC5CC(CC(C5)C2)C4)C[C@H](C(=O)N(C(C)C)C(C)C)[C@@]31C", "note": "(stereo not given in full)", "Potency": "active: 10 µM"}, {"smiles": "COc1cccc(NC(=O)c2cc(Cl)nnc2Cl)c1", "Potency": "inconclusive: 31.6 µM [inhibitor, partial curve, poor fit]"}, {"smiles": "O=C1NN(c2ccc(F)cc2)C(=O)/C1=C/c1cccs1", "Potency": "inconclusive: 2.24 µM [inhibitor, full curve, poor fit]"}, {"smiles": "Clc1ccc(Cn2cccc2C2=NCCO2)cc1", "Potency": "inconclusive: 12.6 µM [inhibitor, partial curve, poor fit]"}, {"smiles": "COc1ccc(S(=O)(=O)N2CCCC(C(=O)NCc3ccc(F)cc3)C2)cc1", "note": "(stereo not given)", "Potency": "inconclusive: 28.2 µM [inhibitor, single point]"}, {"smiles": "CCOc1cc(CNCCCN2CCOCC2)cc(Br)c1OCC(=O)Nc1cccc(C(F)(F)F)c1", "Potency": "inconclusive: 10 µM [inhibitor, partial curve, poor fit]"}, {"smiles": "O=C(CSc1cccc2cccnc12)OCC(=O)c1ccccc1", "Potency": "inconclusive: 22.4 µM [inhibitor, partial curve, poor fit]"}, {"smiles": "COc1ccc(OC)c(C(C)NC(=S)NC2CCCCC2)c1", "note": "(stereo not given)", "Potency": "inconclusive: 28.2 µM [inhibitor, single point]"}, {"smiles": "COCCNC(=O)C1(C)CCCN(Cc2ccc(-c3ccccn3)cc2)C1", "note": "(stereo not given)", "Potency": "inactive"}, {"smiles": "CSc1ccc(CN2CCCC(CNC(=O)c3ccc(F)cc3)C2)cc1", "note": "(stereo not given)", "Potency": "inconclusive: 28.2 µM [inhibitor, single point]"}]}]}
